24 compounds from ChEMBL document CHEMBL5606458, “ASAP - ZIKV NS2B-NS3 protease fluorescence single point” (2024) can be followed below.

For the assay, the target named is Nonstructural protein 3 (Zika virus) (UniProt A0A024AXB9).
The mark [1] stands for this setting: PRVABC59, Concentration 50.0 uM, Number of replicates 1.0.
Where [2] appears, read: PRVABC59, Concentration 15.0 uM, Number of replicates 1.0.

About 160 (5.9%) of roughly 2,700 compounds showed an effect of 50% or more. The list shows a part of the results.

What is called inhibition is the change of the read-out against control, counted positive when it falls.

Sequence of UniProt A0A024AXB9 (A0A024AXB9 as listed by the source): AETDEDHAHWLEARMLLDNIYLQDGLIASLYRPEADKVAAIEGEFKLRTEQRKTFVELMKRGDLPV

Regarding `Cc1cc(CO)c2cccc(NC(=O)C3CC(N)C3)c2n1` (stereo unspecified), the inhibition reads like this: (PRVABC59, Concentration 49.95 uM, Number of replicates 2.0, Standard deviation 0.17303270644971713 %) 56.1%; (PRVABC59, Concentration 99.9 uM, Number of replicates 2.0, Standard deviation 0.6659229038704304 %) 84.7%.

Regarding `CNC(=O)CCNS(=O)(=O)c1ccc(Oc2ccccc2Cl)cc1`, the inhibition (PRVABC59, Concentration 49.5 uM, Number of replicates 2.0, Standard deviation 0.6103677098553716 %) was -1.45%; the inhibition (PRVABC59, Concentration 99.01 uM, Number of replicates 2.0, Standard deviation 1.2353674673512853 %) turned out to be 0.707%; the inhibition (PRVABC59, Concentration 198.0 uM, Number of replicates 2.0, Standard deviation 0.9030098849248221 %) is 3.94%. For the compound `O=Cc1ccc(N2CCC(C(=O)N3CCN(CCOc4ccccc4)CC3)CC2)cc1`, under setting [1], the inhibition was determined as 20.6%. The same measure, in the same setting: with `N#Cc1cnn(-c2ccccn2)c1NC(=O)C1CCN(c2ccc(C=O)cc2)CC1` the figure was 20%; with `CC(C)(C)N(Cc1ccccc1)C(=O)C1CCN(c2ccc(C=O)cc2)CC1`, 25.8%.

Turning to `CS(=O)(=O)C1(CN2CC[C@H](c3c[nH]c4ccccc34)C2)CC1`, the inhibition is, setting by setting: (PRVABC59, Concentration 49.5 uM, Number of replicates 2.0, Standard deviation 1.2618414939445093 %) -2.04%; (PRVABC59, Concentration 99.01 uM, Number of replicates 2.0, Standard deviation 2.1347735965308954 %) 1.06%; (PRVABC59, Concentration 198.0 uM, Number of replicates 2.0, Standard deviation 2.1770465694859586 %) 7.85%. On to `COc1ccc(OC)c(CN2CCN(C(=O)C3CCN(c4ccc(C=O)cc4)CC3)CC2)c1`, for which the inhibition under setting [1] amounted to 27%. The same measure, in the same setting: under `COc1ccc(CCCNC(=O)C2CCN(c3ccc(C=O)cc3)CC2)cc1` stands 20.6%. In the case of `O=C(c1cc(Cl)ccc1NS(=O)(=O)c1ccc(Oc2ccccc2Cl)cc1)N1CCN(Cc2cccc(F)c2)CC1`, the inhibition under setting [2] was 15%.

Turning to `Cc1cc(CO)c2cccc(C[C@H](NC(=O)CNC3CC3)C(=O)O)c2n1`, the inhibition was -9.73% (PRVABC59, Concentration 49.95 uM, Number of replicates 2.0, Standard deviation 2.343473347487472 %) and -6.1% (PRVABC59, Concentration 99.9 uM, Number of replicates 2.0, Standard deviation 1.6007878826619684 %).

For the compound `Cc1nnccc1Cn1ncc(C2CCNCC2)c1C`, the inhibition by setting is: (PRVABC59, Concentration 49.5 uM, Number of replicates 2.0, Standard deviation 1.57987158185777 %) -0.339%; (PRVABC59, Concentration 99.01 uM, Number of replicates 2.0, Standard deviation 0.7213753017219712 %) -1.09%; (PRVABC59, Concentration 198.0 uM, Number of replicates 2.0, Standard deviation 0.5902161214705549 %) -1.89%.

With `Cn1cc(NC(=O)c2ccccc2C(F)(F)F)c(-c2cnc3cn(C)nc3c2)n1`, the inhibition (PRVABC59, Concentration 49.5 uM, Number of replicates 2.0, Standard deviation 1.178216245940104 %) is -2.01%; the inhibition (PRVABC59, Concentration 99.01 uM, Number of replicates 2.0, Standard deviation 1.4710675536718656 %) is -2.29%; the inhibition (PRVABC59, Concentration 198.0 uM, Number of replicates 2.0, Standard deviation 1.7829883926731995 %) was determined as 0.77%. Take `Cc1nc(C(=O)N2CCC(n3cc(CN)nn3)CC2)c(Cc2ccccc2)s1`: the inhibition (PRVABC59, Concentration 49.5 uM, Number of replicates 2.0, Standard deviation 0.17686621520287402 %) was -2.1%; the inhibition (PRVABC59, Concentration 99.01 uM, Number of replicates 2.0, Standard deviation 0.23847116785318653 %) was -1.95%; the inhibition (PRVABC59, Concentration 198.0 uM, Number of replicates 2.0, Standard deviation 0.041732481769759175 %) was 0.471%. Take `CCn1ccnc(NCC(=O)c2c[nH]c3ccccc23)c1=O`: the inhibition reads like this: (PRVABC59, Concentration 49.5 uM, Number of replicates 2.0, Standard deviation 1.7965916884251514 %) -7.9%; (PRVABC59, Concentration 99.01 uM, Number of replicates 2.0, Standard deviation 2.206637366063275 %) -9.28%.

Take `Cc1nc(C2CCN(C(=O)c3ccn([C@H]4CCCNC4)n3)CC2)n[nH]1`: the inhibition is, setting by setting: (PRVABC59, Concentration 49.5 uM, Number of replicates 2.0, Standard deviation 1.1522585919981234 %) -1.99%; (PRVABC59, Concentration 99.01 uM, Number of replicates 2.0, Standard deviation 1.5159146664731555 %) -2.28%; (PRVABC59, Concentration 198.0 uM, Number of replicates 2.0, Standard deviation 1.6936566931880859 %) -3.04%. For the compound `Cn1oc(C(=O)Nc2cc(Cl)cc(C(=O)NC(C)(C)CO)c2)cc1=O`, the inhibition is, setting by setting: (PRVABC59, Concentration 49.5 uM, Number of replicates 2.0, Standard deviation 0.49453347143401666 %) 0.152%; (PRVABC59, Concentration 99.01 uM, Number of replicates 2.0, Standard deviation 4.083705258559492 %) 4.33%; (PRVABC59, Concentration 198.0 uM, Number of replicates 2.0, Standard deviation 1.0290099115968685 %) 3.63%. In the case of `[N-]=[N+]=NCCOCCOCCOCCNC(=O)C1CCN(c2ccc(C=O)cc2)CC1`, the inhibition under setting [1] was 22.5%. Still for that read-out and setting: with `O=Cc1ccc(N2CCC(C(=O)N3CCC(O)(c4ccc(Cl)cc4)CC3)CC2)cc1` the figure was 20.5%. Take `CCOC(=O)c1coc(Cn2cc(C3CCNCC3)c(C)n2)n1`: the inhibition amounted to 2.91% (PRVABC59, Concentration 49.5 uM, Number of replicates 2.0, Standard deviation 2.7013392036203805 %); 6.05% (PRVABC59, Concentration 99.01 uM, Number of replicates 2.0, Standard deviation 3.7617734682921835 %); 11.1% (PRVABC59, Concentration 198.0 uM, Number of replicates 2.0, Standard deviation 0.5886748112205115 %). Turning to `O=Cc1ccc(N2CCC(C(=O)N[C@@H](CCO)c3ccccc3F)CC2)cc1`, the inhibition (PRVABC59, Concentration 10.0 uM, Number of replicates 1.0) is 19.1%. Consider `Cn1cc(CNC(=O)c2ccccc2-c2cccnc2)cn1`, for which the inhibition was 0.299% (PRVABC59, Concentration 49.5 uM, Number of replicates 2.0, Standard deviation 0.5877340250731194 %); -0.679% (PRVABC59, Concentration 99.01 uM, Number of replicates 2.0, Standard deviation 0.42986369479040104 %); -0.69% (PRVABC59, Concentration 198.0 uM, Number of replicates 2.0, Standard deviation 0.566811449656849 %).

`CC(=O)Nc1cccc(CNC(=O)c2cc(Cl)ccc2NS(=O)(=O)c2ccc(Oc3ccccc3Cl)cc2)c1`: the inhibition under setting [2] was 28.4%. Consider `O=C(c1cc(Cl)ccc1NS(=O)(=O)c1ccc(Oc2ccccc2Cl)cc1)N1CCN(c2cccc([N+](=O)[O-])c2)CC1`, for which the inhibition under setting [2] is 15.2%. Consider `Cc1cc(CO)c2cccc(Cc3cccc(NC(=O)Cc4c[nH]c5ccccc45)c3)c2n1`, for which the inhibition is -0.245% (PRVABC59, Concentration 49.95 uM, Number of replicates 2.0, Standard deviation 1.6337816579349032 %) and 3.2% (PRVABC59, Concentration 99.9 uM, Number of replicates 2.0, Standard deviation 1.6490504074791872 %).
